# Results: the RNAGym collection of RNA variant scans (doi:10.7554/elife.90254)
# The source gives no read counts; variants with many changes may rest on few reads.
# B1: LINE1-full (parent)
# chain: UACGUAGGUGGUUUUCCCCUGAUAGUGCUAAGGGGGCCUGGAAGUUUGGACUGGGCAGAGCUCAACACAGCGUGGCAAAGUGGCUGUGGCUAGACUGCCUCUCUGGAUUCCUCGUCACUCAGCAGGGCAUCUCUGAGAGAAAUGCC
# Variants of: B1
# Experiment: self-cleavage, relative activity (ratio to wild type); higher = more cleavage; in vitro, sequencing; the parent is a self-cleaving ribozyme
row,Variant,self-cleavage
1,UGCGUAGGUGGUUUUCCCCUGAUAGUGCUAAGGGGGCCUGGAAGUUUGGACUGGGCAGAGCUCAACACAGUGUGGCAAAGUGGCUGUGGCUAGACUGCCUCUCUGGAUUCCUCGUCACUCAGCAGGGCAACUCUGAGAGAAAUGCC [A2G C71U U130A],0.64
2,UACGUGGGUGGUUUUCCCCUGAUAGUGCUAAGGGGGCCUGGAUGUUUGGACUGGGCAGAGCUCAACACAGCGUGGCAAAGUGGCUGUGGCUAGACUGCCUCUCUGGAUUCCUCGUCACUCAGCAGGGCAUCCCUGAGAGAAACGCC [A6G A43U U132C U143C],0.4
3,UACGUAGGUGGUUUUCCCCUGAUAGUGCUAAGGGGGCCUGGAAGUUUGGACUGGGCAGAGCUCAACACAGCGUGGCAAAGUAGCUGCGGCUAGACUGCCUCUCUGGAUUCCUCGUCACUCAGCAGGGCAACUCUGAGAGAAAUGCC [G82A U87C U130A],0.22
4,UACGUAGGUGGUUCUCCCCUGAUAGUGCUAAGGGGGCCUGGAAGUUUGGACUGGGCAGGGCUCAACACGGCGUGGCAAAGUGGCUGUGGCUAGACUGCCUCUCUGGAUUCCUCGUCACUCAGCAGGGCAUCUCUGAGAGAAAUGCC [U14C A59G A69G],0
5,UACGUAGGUGGUUUUCCCCCGAUAGCGCUAAGGGGGCCUGGAAGUUUGGACUGGGCAGAGCUCAACACAGCGUGGCAAAGUGGCUGUGGCUAGACUGCCUCUCUGGAUUCCUCGCCACUCAGCAGGGCAUCUCUGAGAGGAAUGCC [U20C U26C U115C A140G],1.15
6,UACGUAGGUGGAUUCCCCCUGAUAGUGCUUAGGGGGCCUGGAAGUUUGGACUGGGCAGAGCUCAACACAGCGUGGCAAAGUGGCUGUGGCUAGACUGCCUCUCUGGAUUCCUCGUCACUCAGCAGGGCAUCUCUGAGAGAAAUGCC [U12A U15C A30U],1.18
7,UACGUAGGUGGUUUUCCCCUGAUAGUGCUAAGGAGGCCUGGAAGUUUGGACUGGGCAGAGCUCAACACAGCGUGGCAAAGUGGCUGUGGCUUGACUGCCUCUCUGGAUUCCUCGUCACUCAGCAGGGCAUCUCUGUGAGAAAUGCC [G34A A92U A136U],0.54
8,UACGUAGGUGGUUUACCCCUGAUAGUGCUAAGGGGGCCUGGAUGUUUGGACUGGGCAGAGCUCGACACAGCGUGGCAAGGUGGCUGUGGCUAGACUGCCUCUCUGGAUUCCUCGUCACUCAGCAGGGCAUCUCUGAGAGGAAUGCC [U15A A43U A64G A79G A140G],0.14
9,UACGUAGGUGGUCCUCCCCUGAUAGUGCUAAGGGGGCCUGGAAGUUCGGACUGGGCAGAGCUCAACACAGCGUGGCAAAGUGGCUGUGGCUAGACUGCCUCUCUGGAUUCCUCGUCACUCAGCAGGGCAUCUCUGAGAGAAAUGCC [U13C U14C U47C],1.36
10,UACGUAGGUGGUUUUCCCCCGAUAGUGCUAAGGGGGCCCGGAAGUUUGGACUGGGCAGAGCUCAACACAGCGUGGCAAAGUGGCUGUGGCUGGACUGCCUCUCUGGAUUCCCCGUCACUCAGCAGGGCAUCUCUGAGAGAAAUGCC [U20C U39C A92G U112C],0
11,UACGUAGGUGGUUUUCCCCUGAUAGUGCUAAGGGGGCCUGGAAGUUUGGACUGGGCAGAGCUCAACACAGCGUGACAAAGUGGCUGUGGCUAGACAGCCUCUCUGGAUUCCUCGUCACUCAGCGGGGCAUCUCUGAGAGAAAUGCC [G75A U96A A124G],0.11
12,UACGUAGGUGGUUUUCCCCUGGUAGUGCUAAGGGGGCCUGGAAGUUUGGACUGGGCAGGGCUCAACACAGCGUGGCAAAGUGGCUGUGGCUAGACUGCCUCUCUGGAUUCCUCGUCACUCAGCAGGGCAUCUCUGAGAGGAAUGCC [A22G A59G A140G],0.57
13,UACGUAGGUGGUUUUCCCCUGAAAGUGCUAAGGGGGCCUGGAAGUUUGGACUGGGCAGAGCUCAACUCAGCGUGGCUAAGUGGCUGUGGCUAGACUGCCUCUCUGGAUUCCUCGUCACUCAGCAGGGCAUCUCUGAGAGAAAUGCC [U23A A67U A77U],0.14
14,UACGUGGGUGGUUUUCCCCUGAUAGUGCUAAGGGGGCCUGGAAGUUUGGUCUGGGCAGAGCUCAACACAGCGUGGCAAAGUGGCUGUGGCAAGGCUGCCUCUCUGGAUUCCUCGUCACUCAGCAGGGCAUCUCUGAGAGAAAUGCC [A6G A50U U91A A94G],0.29
15,UACGUAGGUGGUUUUCCCCUGAUAGUGCUAAGGGGGCCUGGAAGCUUGGACUGGGCAGAGCUCAACACGGCGUGGCAAAGUGGCUGUGGCUAGACUGCCUCUCUGGACUCCUCGUCACUCAGCAGGGCAUCUCUGAGAGAAAUGCC [U45C A69G U108C],0
16,UACGUAGGUGGUUUUCCCAUGAUAGUGCUAAGGGGGCCUGGAAGUUUGGACUGGGCAGAGCUCAACACAGCGUGGCAAAGUGGCUGUGGCUAGACCGCCUCUCUGGAUUCCUCGUCACUCAGCAGGGCUUCUCUGAGAGAAAUGCC [C19A U96C A129U],0.07
17,UACGUAGGUGGUUUUCCCCUGAUAGAGCUAAGGGGGCCUGGAAGUUUGGACUGGGCAGAGCUCAACACAGCGUGGCUAAGUGGCUGUGGCUAGACUGCCUCUCUGGAUUCCUCGUCACUCAGCAGGGCAUCUCUGAGGGAAAUACC [U26A A77U A138G G144A],1.17
18,UACGUAGGUGGUUUUCCCCUGAUAGUGCUAAGGGGGCCUGGAAGUUUGGACUGGGCAGAGCUCAACACAGCGCGGCAAAGCGGCUGUGGCUAGACUGCCUCUCUGGAUUCCACGUCACUCAGCAGGGCAUCUCUGAGAGAAAUGCC [U73C U81C U112A],2.18
19,UACGUAGGUGGUUUCCCCCUGAUAGUGCUAAGGGGGCCUGGAAGUUUGGACUGGGCAGAGCUCAACACAGCGUGGCAAAGUGGCUGUGGCUAGGCUGCCUCUCUGGACUCCUCGUCACUCAGCAGGGCAUCUCUGAGAGAAAUGCC [U15C A94G U108C],0.77
20,UACGUAGGUGGUUUUCCCCUGAUAGUGCUAAGCGGGCCUGGAAGUUUGGACUGGGCAGAGCUCAACACAGCGUGGCAAAGUGGCUAUGGCUAGACUGCCUCUCUGGAUUCCUCGUCACUCAGCAGGGCAUCUCUGUGAGAAAUGCC [G33C G86A A136U],0.08

row,Variant,self-cleavage
1,UACGUAGGUGGUUUCCCCCUGAUAGUGCUAAGGGGGCCCGGAAGUCUGGACUGGGCAGAGCUCAACACAGCGUGGCAAAGUGGCUGUGGCUAGACUGCCUCUCUGGAUUCCUCGUCACUCAGCAGGGCAUCUCUGAGAGAAAUGCC [U15C U39C U46C],1.64
2,UACGUAGGUGGUUUUCCCCUGAUAGUGCUAAGGGGGCCUGGAAGUUUGGGCUGGGCAGAGCUCAACACAGCGUGGCAAAGUGGCUGUGGCUAGACCGCCUCUCUGGAUUCCUCGUCACCCAGCAGGGCAUCUCUGAGAGAAAUGCC [A50G U96C U119C],0
3,CACGUAGGUGGUUUUCCCCUGAUAGUGCUAAGGGGGCCUGGAAGUUUGGACUGGGCAGAGCUCAACACAGCGUGGCAAAGUGGCUGUGGCUAGGCUGCCUCUCUGAAUUCCUCGUCACUCAGCAGGGCAUCUCUGAGAGAAAUGCC [U1C A94G G106A],0.05
4,UACGUAGGUGGUUUUCCCCUGAUAGUGCUAAGGGGGCCUGGAAGUUUGGACUGGGCAGAGCUCAACACAGCGUGGCAAAGUGGCGGUGGCUAGACUGCCUCACUGGAUUCCUCGUCACCCAGCAGGGCAUCUCUGAGAGAAAUGCC [U85G U102A U119C],0.23
5,UACGUAGGUGGUUUUCCCCUGAUAGUGCUACGGGGGCCUGGAAGUUUGGACUGGGCAGAGCUCAACACAGCGUGGCAAAGUGGCUGUGGCUAGACUGCCUCUCUGGAUUCCUCGUCGCUCAGCAGGGCACCUCUGAGAGAAAUGCC [A31C A117G U130C],0
6,UACGUAGGUGGUUUUCCCCUGAUAGUGCUAAGGGGGCCUGGAAGGUUGGACUGGGCAGAGCUCAACACAACGUGGCAAUGUGGCUGUGGCUAGGCUGCCUCUCUGGAUUCCUCGUCACUCGGCAGGGCAUCUCUGAGAGAAAUGCC [U45G G70A A79U A94G A121G],0.11
7,UACGUAGGUGGUUUUCCCCUGAUAGUGCUAAGGGGGCCCGGAAGUUUGGACUGGGCAGAGCUCAACACAGCGUGGCAAAGUGGCUGUGGCUAGACUGCCUCUCAGGAUUCCUCGUCACUCAGCAGGGCAUCACUGAGAGAAAUGCC [U39C U104A U132A],0.32
8,UACGUAGGUGGUUUUCCCCGGAUAGUGCUAAGGGGGCCUGGAAGUUUGGACUGGGCAGAGCUCAACGCAGCGUGGCAAAGUGGCUGUGGCUAGACUGCCUCUCUGGAUCCCUCGUCACUCAGCAGGGCAUCUCUGAGAGAAAUGCC [U20G A67G U109C],1.02
9,UACGUAGGUGGUUUUCCCCUGAUAGUGCUAAGGGGGCCUGGAAGUUUGGACUGGGCAGAGCUCAACACAGCGUGGCAGAGUGGCUGUGGGUAGACUGCCUCUCUGGAUUCCUCGUCGCUCAGCAGGGCAUCUCUGAGAGAAAUGCC [A78G C90G A117G],0.18
10,CACGUAGGUGGUUUUCCCCUGAUAGUGCUAAGGGGGCCUGGAAGUUUGGACUGGGCAGAGCUCAGCACAGCGUGGCAAAGUGGCUGUGGCUAGACUGCCUCUCUGGAUUCCUCGUCACUCAGCAGGACAUCUCUGAGAGAAAUGCC [U1C A65G G127A],0.04
11,UACGUAGGUGGUUUUCCCCUGAUAGUGCUAAGGGGGCCUGGAAGUUUGGACUGGGCAGAGCACAGCACAGCGUGGCAAAGUGGCUGUGGAUAGACUGCCGCUCUGGAUUCCUCGUCACUCAGCAGGGCAUCUCUGAGAGAAAUGCC [U62A A65G C90A U100G],0.08
12,UACGUAGGUGGUUUUCCCCUGAUAGUGCUAAGGGGGCCUGGAAGUUUGGACUGGGCAGAGCUCUACACAGCGUGGCAAAGUGGCUGUGGCUAGGCUGCCUCUCUGGAUUCCUCUUCACUCAGCAGGGCAUCUCUGAGAGAAAUGCC [A64U A94G G114U],0.1
13,UACGUAGGUGGUUUUCCCCUGAUAGUGCCAAGGGGGCCUGGAAGUUUGGACUGGGCAGAGCUCAACACAGCGUGGCAAAGAGGCUGUGGCUAGACUGCCUCUCUGGAUUCCUCGUCACUCAGCAGGGCAUCUCUGAGAGAGAUGCC [U29C U81A A141G],2.16
14,UACGUAGGUGGUUUUCCCCUGAUAGUGCUAAAGGGGCCUGGAAGUUUGGACUGGGCAGAGCUCAACACAGCGUGGCAAAGUGGCUGUGGCUAGACCGCCUCUCUGGAUUCCUCGUCACUCAGCAGGGCACCUCUGAGAGAAAUGCC [G32A U96C U130C],0.15
15,UACGUAGGUGGUUUUCCCCUGAUAGUGCUAAGGGGGCCUGGAAGUUUGGACUGGGCAGGGCUCAACACAGCGAGGCAAAGAGGCUGUGGCUAGACUGCCUCUCUGGAUUCCUCGUCACUCAGCAGGGCAUCUCUGAGAGAAAUGCC [A59G U73A U81A],0.11
16,UACGUAGGUGGUUUUCCCCUGUUAGUGCUAAGGGGGCCUGGAAGUCUGGACUGGGCAGAGCUCAACACAGCGUGGCAAAGUGGCUGUGGCUAGACUGCCUCUCUGGAUUCCUCGUCACUCAGCAGGGCUUCUCUGAGAGAAAUGCC [A22U U46C A129U],1.38
17,UAAGUAGGUGGUUUCCCCCUGAUAGUGCUAAGGGGGCCUGGGGGUUUGGACUGGGCAGAGCUCAACACAGCGUGGCAAAGUGGCUGUGGCUAGACUGCCUCUCUGGACUCCUCGUCACUCAGCAGGGCAUCUCUGAGAGAAAUGCC [C3A U15C A42G A43G U108C],1.41
18,UACGUAGGUGGUUUUCCCCUGAUAGUGCUAAGGGGACCUGGAAGUUUGGACUGGGCAGAGCUCAACACAGCGUGGCGAAGUGGCUGUGGCUAGACUGCCUCUCUGGAUUCCUCGUCACUCGGCAGGGCAUCUCUGAGAGAAAUGCC [G36A A77G A121G],2.56
19,UACGUAGGUGGUUUCCCCCUGAUAGUGCUAAGGGGGCCUGGAAGUUUGGACUGGGCAGAGCUCAACACAGCGUGGCAAAGUGGCUGUGGCUAGACUGCCUCUCUGGAUUCCUCGUCGCUCAGCUGGGCAUCUCUGAGAGAAAUGCC [U15C A117G A124U],0.8
